In the supplement of paper PMC4604168 (melanoma cell lines) one finds cell count data, which are given here for 4 compounds.

The structures appear in SMILES notation. The list shows a part of the results. Most values come without repeats; read them as rough.
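Further: cell number obtained by counting DAPI-stained nuclei in high-throughput microscope images with image analysis software, screen run in 1,536-well plates.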

The experiment has as its system WM1745. Description: cell count relative to DMSO control; melanoma cells; higher = more viable cells. The following applies: library dose: low library concentration; 72 h.
`O=C(O)[C@@H]1[O][Sb](=[O])([O][Sb]2(=[O])[O][C@H]([C@H](O)CO)[C@H](O)[C@H](C(=O)O)[O]2)[O][C@H]([C@H](O)CO)[C@@H]1O` (some centres undefined) [stibogluconate] + Cn1nnc2c(C(N)=O)ncn2c1=O [temozolomide] (first compound 2 µM, partner dose 2 µM) yielded a cell count of 91.8%. The compound `O=C(O)[C@@H]1[O][Sb](=[O])([O][Sb]2(=[O])[O][C@H]([C@H](O)CO)[C@H](O)[C@H](C(=O)O)[O]2)[O][C@H]([C@H](O)CO)[C@@H]1O` (some centres undefined) [stibogluconate] + CC(C)(C)c1cnc(CSc2cnc(NC(=O)C3CCNCC3)s2)o1 [SNS-032] (first compound 2 µM, partner dose 0.01 µM) gave a cell count of 97.7%. The compound `O=C(O)c1ccc2c(c1)nc(Nc1cccc(Cl)c1)c1ccncc12` + CO[C@@H]1[C@H](N(C)C(=O)c2ccccc2)C[C@H]2O[C@]1(C)n1c3ccccc3c3c4c(c5c6ccccc6n2c5c31)C(=O)NC4 [Midostaurin] (first compound 0.4 µM, partner dose 0.08 µM) registered a cell count of 82%. As for `O=C(O)[C@@H]1[O][Sb](=[O])([O][Sb]2(=[O])[O][C@H]([C@H](O)CO)[C@H](O)[C@H](C(=O)O)[O]2)[O][C@H]([C@H](O)CO)[C@@H]1O` (some centres undefined) [stibogluconate] + COCC[n+]1c2c(n(Cc3cnccn3)c1C)C(=O)c1ccccc1C2=O [YM155] (first compound 2 µM, partner dose 0.0004 µM), the figure is 102%.
